± gives the standard deviation of the averaged measurements. The full ranking holds about 33,000 sequences; the median of “E-score (dimensionless, -0.5 to 0.5)” is about -0.049, and the highest 2% start at about 0.37. This is one part of the list.

This assay relates to T1, PmTbr T-box DNA-binding domain (GST fusion).
T1 sequence: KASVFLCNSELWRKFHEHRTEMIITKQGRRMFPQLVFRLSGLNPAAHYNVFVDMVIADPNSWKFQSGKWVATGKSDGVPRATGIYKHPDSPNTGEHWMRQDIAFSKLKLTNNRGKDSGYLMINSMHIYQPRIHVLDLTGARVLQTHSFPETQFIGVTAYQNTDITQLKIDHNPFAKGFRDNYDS
In words: PBM E-score of 8-mer (E-score (dimensionless, -0.5 to 0.5)); Tbr is Tbrain of the sea star Patiria miniata (Pm) or the sea urchin Strongylocentrotus purpuratus (Sp); higher = stronger binding preference; most listed sequences are background and not binding sites. As to conditions: the construct has about 5 more residues each side. The procedure, abridged:
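Expression of GST-fused Tbr T-box DNA-binding domains, each holding the full T-box plus roughly five flanking residues, was carried out in BL21 E. coli at 20 °C, with purification by glutathione affinity chromatography. Universal Agilent arrays made double-stranded by primer extension were incubated with the protein at 200 nM in PBS (pH 7.5), then scanned and quantified. All ungapped 8-mers were scored from probe intensities, and each received an enrichment E-score from the Universal PBM Analysis Suite, averaged over duplicate arrays.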
Take AGAACGGA: the “PBM E-score of 8-mer” value was -0.135 ± 0.0092.

GGAAATAC: the “PBM E-score of 8-mer” value is -0.0419 ± 0.014.

Consider AGCGTTAC, for which the “PBM E-score of 8-mer” value stood at 0.0407 ± 0.036.

With CCCCAGAC, the “PBM E-score of 8-mer” value is -0.109 ± 0.082.

For the sequence ACGCAACG, the “PBM E-score of 8-mer” value is -0.0816 ± 0.088.

On to ATATAGAC, for which the “PBM E-score of 8-mer” value was -0.171 ± 0.026.

Take CACCGTAA: the “PBM E-score of 8-mer” value came to 0.2 ± 0.045.

In the case of ACTCAAAA, the “PBM E-score of 8-mer” value was -0.0256 ± 0.025.

On to CACCTCGA, for which the “PBM E-score of 8-mer” value is 0.4483 ± 0.002.

Take AGTCGTTC: the “PBM E-score of 8-mer” value came to 0.0412 ± 0.0045.

As for AGATGGAT, the “PBM E-score of 8-mer” value is -0.121 ± 0.036.

ATTAGAGG: the “PBM E-score of 8-mer” value was -0.245 ± 0.012.

Regarding CCCAGGTC, the “PBM E-score of 8-mer” value was -0.157 ± 0.069.

Take ATTCTTAC: the “PBM E-score of 8-mer” value is -0.164 ± 0.032.

For the sequence CCTGCGCC, the “PBM E-score of 8-mer” value was -0.185 ± 0.067.

As for AAAACTCG, the “PBM E-score of 8-mer” value was -0.0772 ± 0.064.

With TCACTGAA, the “PBM E-score of 8-mer” value was -0.00506 ± 0.034.

With CATCTCTC, the “PBM E-score of 8-mer” value came out at 0.127 ± 0.025.

Consider AAAACTGA, for which the “PBM E-score of 8-mer” value is -0.181 ± 0.049.

With GATGGCAC, the “PBM E-score of 8-mer” value was 0.226 ± 0.012.

With AGTCTGAC, the “PBM E-score of 8-mer” value was determined as 0.00698 ± 0.016.

Regarding GGTGGGTA, the “PBM E-score of 8-mer” value was -0.147 ± 0.0071.

Consider CGCGACCA, for which the “PBM E-score of 8-mer” value was 0.158 ± 0.0094.

Regarding CACGATTA, the “PBM E-score of 8-mer” value turned out to be 0.0478 ± 0.0013.

With ATCCTTCG, the “PBM E-score of 8-mer” value is -0.104 ± 0.00045.

Turning to CGTAGCGA, the “PBM E-score of 8-mer” value is -0.0568 ± 0.064.

With ACTCGAAT, the “PBM E-score of 8-mer” value is -0.111 ± 0.012.

As to TCAGCGAA, the “PBM E-score of 8-mer” value was determined as 0.0664 ± 0.033.

CAGCTTCA: the “PBM E-score of 8-mer” value is 0.252 ± 0.034.

Regarding AGATTATA, the “PBM E-score of 8-mer” value was -0.0156 ± 0.077.

For the sequence AAACACGA, the “PBM E-score of 8-mer” value is 0.0913 ± 0.081.

Turning to ATTCTCCG, the “PBM E-score of 8-mer” value worked out at 0.0879 ± 0.092.

As to CACACGAG, the “PBM E-score of 8-mer” value amounted to 0.0954 ± 0.024.

As for ATTTTGTA, the “PBM E-score of 8-mer” value is -0.0288 ± 0.12.

CCGCAAGG: the “PBM E-score of 8-mer” value is -0.0428 ± 0.021.

Regarding ATTGCGGA, the “PBM E-score of 8-mer” value is -0.0212 ± 0.064.

Turning to GAGTCCAC, the “PBM E-score of 8-mer” value was -0.0836 ± 0.065.

As for CTAACGCA, the “PBM E-score of 8-mer” value was determined as 0.203 ± 0.054.

Take AAGACGCT: the “PBM E-score of 8-mer” value was -0.0844 ± 0.043.

With TATGAACA, the “PBM E-score of 8-mer” value was -0.116 ± 0.05.

Turning to GCGAGGCA, the “PBM E-score of 8-mer” value came to 0.197 ± 0.02.

Consider AAATGGAA, for which the “PBM E-score of 8-mer” value was -0.157 ± 0.022.

Turning to ATTTAATA, the “PBM E-score of 8-mer” value was determined as 0.0973 ± 0.0012.

Turning to AAGAAGCA, the “PBM E-score of 8-mer” value was -0.224 ± 0.022.

Consider GCGCTACC, for which the “PBM E-score of 8-mer” value worked out at 0.345 ± 0.021.

For the sequence TTATCAAA, the “PBM E-score of 8-mer” value is -0.0375 ± 0.11.

In the case of CGAGAAAA, the “PBM E-score of 8-mer” value was found to be 0.233 ± 0.021.

In the case of CTAATCGC, the “PBM E-score of 8-mer” value came to 0.097 ± 0.035.

For the sequence AGTAATAT, the “PBM E-score of 8-mer” value was -0.0505 ± 0.075.

CTCAGACC: the “PBM E-score of 8-mer” value is -0.271 ± 0.024.

As for GTGAGGTA, the “PBM E-score of 8-mer” value is 0.215 ± 0.027.

Regarding CAGCCACC, the “PBM E-score of 8-mer” value came out at 0.096 ± 0.0017.

For the sequence CAGGGCTC, the “PBM E-score of 8-mer” value was -0.316 ± 0.076.

Consider CACAAAAG, for which the “PBM E-score of 8-mer” value was determined as 0.0694 ± 0.01.

Turning to CACCGTGC, the “PBM E-score of 8-mer” value worked out at 0.156 ± 0.05.

As for CCCGGACC, the “PBM E-score of 8-mer” value is -0.184 ± 0.022.

CCGCGGAA: the “PBM E-score of 8-mer” value is -0.0331 ± 0.048.

As for CTACGAAA, the “PBM E-score of 8-mer” value amounted to 0.00341 ± 0.023.

Consider CATAAAGA, for which the “PBM E-score of 8-mer” value is -0.119 ± 0.027.

As to AGCACCAC, the “PBM E-score of 8-mer” value turned out to be 0.115 ± 0.054.

As to AATACCGT, the “PBM E-score of 8-mer” value was -0.0344 ± 0.0088.

Take CTCTGACA: the “PBM E-score of 8-mer” value came out at 0.241 ± 0.028.

For the sequence GCCGTGCC, the “PBM E-score of 8-mer” value worked out at 0.0438 ± 0.036.

TCAGTACA: the “PBM E-score of 8-mer” value was -0.111 ± 0.0065.

Consider ATGTTCCC, for which the “PBM E-score of 8-mer” value is -0.209 ± 0.046.

For the sequence AACTGCAA, the “PBM E-score of 8-mer” value is -0.106 ± 0.07.

With CCCCGTCA, the “PBM E-score of 8-mer” value is 0.255 ± 0.029.

As to ACCCCTAG, the “PBM E-score of 8-mer” value was -0.0734 ± 0.065.

For the sequence ACGTATAA, the “PBM E-score of 8-mer” value was -0.122 ± 0.059.

ATTCCAGC: the “PBM E-score of 8-mer” value is -0.23 ± 0.042.

With CGGATGCA, the “PBM E-score of 8-mer” value is -0.161 ± 0.014.

GGTGAGAC: the “PBM E-score of 8-mer” value was found to be 0.3824 ± 0.0024.

Take GAATTTGC: the “PBM E-score of 8-mer” value came out at 0.185 ± 0.0034.

As to AGTCTTCC, the “PBM E-score of 8-mer” value was -0.221 ± 0.06.

As to AGGAAAGC, the “PBM E-score of 8-mer” value is -0.168 ± 0.0094.

With ACTAAAGT, the “PBM E-score of 8-mer” value is -0.046 ± 0.036.

CGACAATC: the “PBM E-score of 8-mer” value came to 0.198 ± 0.022.

In the case of CTTGAAGC, the “PBM E-score of 8-mer” value is -0.131 ± 0.033.

Consider GAACTCAC, for which the “PBM E-score of 8-mer” value is 0.0408 ± 0.015.

Take ATAGGCGC: the “PBM E-score of 8-mer” value is 0.31 ± 0.015.

As to ACTGACCC, the “PBM E-score of 8-mer” value is -0.226 ± 0.11.

On to AGTAGTGG, for which the “PBM E-score of 8-mer” value is -0.0452 ± 0.05.

Consider CGGGTCTA, for which the “PBM E-score of 8-mer” value was -0.0532 ± 0.011.

Consider AATTAGAA, for which the “PBM E-score of 8-mer” value was -0.2 ± 0.0053.

As for AGGCGGGC, the “PBM E-score of 8-mer” value was -0.0452 ± 0.043.

On to ACATGTCA, for which the “PBM E-score of 8-mer” value came out at 0.238 ± 0.0027.

ACCCGTAC: the “PBM E-score of 8-mer” value is -0.198 ± 0.038.

As for ATAAAGGC, the “PBM E-score of 8-mer” value was -0.0452 ± 0.0065.

As to AGAACTCA, the “PBM E-score of 8-mer” value is -0.17837 ± 1.4e-05.

Turning to AGTGATCA, the “PBM E-score of 8-mer” value is -0.104 ± 0.025.

In the case of GGCGCACC, the “PBM E-score of 8-mer” value stood at 0.00299 ± 0.059.

CCAAACCA: the “PBM E-score of 8-mer” value is -0.0605 ± 0.059.

AGACGTAT: the “PBM E-score of 8-mer” value is -0.102 ± 0.0031.

On to AACTGCAG, for which the “PBM E-score of 8-mer” value was -0.0653 ± 0.069.

For the sequence GTTATTAA, the “PBM E-score of 8-mer” value worked out at 0.067 ± 0.082.

On to GACACTTA, for which the “PBM E-score of 8-mer” value amounted to 0.3962 ± 0.0036.

As to GCTGCAGA, the “PBM E-score of 8-mer” value came to 0.033 ± 0.027.

In the case of AAACACTT, the “PBM E-score of 8-mer” value came to 0.348 ± 0.042.

For ATGTCAAA, the “PBM E-score of 8-mer” value was 0.0972 ± 0.0062.

For the sequence TAGGATCA, the “PBM E-score of 8-mer” value was -0.22 ± 0.059.

Take AACGCGAG: the “PBM E-score of 8-mer” value came to 0.123 ± 0.052.

Turning to ACACGCAA, the “PBM E-score of 8-mer” value turned out to be 0.106 ± 0.029.

Turning to GCCCCGGA, the “PBM E-score of 8-mer” value was -0.1 ± 0.028.

GCAACCCA: the “PBM E-score of 8-mer” value was -0.0334 ± 0.089.

Take AGTTTGAT: the “PBM E-score of 8-mer” value was 0.0116 ± 0.073.

Consider CAAAGTGA, for which the “PBM E-score of 8-mer” value came out at 0.307 ± 0.035.

Consider CAACCCCA, for which the “PBM E-score of 8-mer” value was 0.0413 ± 0.099.

For CAGACACC, the “PBM E-score of 8-mer” value came out at 0.355 ± 0.0066.

On to ACGATACG, for which the “PBM E-score of 8-mer” value is -0.0423 ± 0.011.

For CGGTCTCC, the “PBM E-score of 8-mer” value was -0.176 ± 0.065.

Source of the values: the supplement of paper PMC4166925.
